# From the supplement of paper PMC8728848
# This is one part of the list.
# Experiments:
# Experiment in all cases: glycan array binding signal (z-score within array); higher = stronger binding
# Conditions in all cases: glycan notation: IUPAC condensed, linker removed
# [1] = molecular target: Fuc(a1-2)[GalNAc(a1-3)]Gal(b1-3)GlcNAc(b1-3)GalNAc
# In short: (§1)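 The binding signal is a Z-score computed within each array. Data were drawn from 3228 arrays in the Consortium for Functional Glycomics database, restricted to those with a known protein sequence. Scores were averaged over arrays of the same protein sequence at different concentrations or buffers, and over linkers, and negative values can be taken as non-binding.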
# [2] = molecular target: Fuc(a1-2)[GalNAc(a1-3)]Gal(b1-3)GlcNAc(b1-6)GalNAc
# In short: as §1
# [3] = molecular target: Fuc(a1-2)[GalNAc(a1-3)]Gal(b1-4)Glc
# In short: as §1
# [4] = molecular target: Fuc(a1-2)[GalNAc(a1-3)]Gal(b1-4)GlcNAc
# In short: as §1
# [5] = molecular target: Fuc(a1-2)[GalNAc(a1-3)]Gal(b1-4)GlcNAc(b1-2)Man
# In short: as §1
# [6] = molecular target: Fuc(a1-2)[GalNAc(a1-3)]Gal(b1-4)GlcNAc(b1-2)Man(a1-3)[Fuc(a1-2)[GalNAc(a1-3)]Gal(b1-4)GlcNAc(b1-2)Man(a1-6)]Man(b1-4)GlcNAc(b1-4)GlcNAc
# In short: as §1
# [7] = molecular target: Fuc(a1-2)[GalNAc(a1-3)]Gal(b1-4)GlcNAc(b1-2)Man(a1-3)[Fuc(a1-2)[GalNAc(a1-3)]Gal(b1-4)GlcNAc(b1-2)Man(a1-6)]Man(b1-4)GlcNAc(b1-4)[Fuc(a1-6)]GlcNAc
# In short: as §1
# [8] = molecular target: Fuc(a1-2)[GalNAc(a1-3)]Gal(b1-4)GlcNAc(b1-3)Gal(b1-4)GlcNAc
# In short: as §1
# [9] = molecular target: Fuc(a1-2)[GalNAc(a1-3)]Gal(b1-4)GlcNAc(b1-3)Gal(b1-4)GlcNAc(b1-3)Gal(b1-4)GlcNAc
# In short: as §1
# [10] = molecular target: Fuc(a1-2)[GalNAc(a1-3)]Gal(b1-4)GlcNAc(b1-3)GalNAc
# In short: as §1
# [11] = molecular target: Fuc(a1-2)[GalNAc(a1-3)]Gal(b1-4)GlcNAc(b1-3)[Fuc(a1-2)[GalNAc(a1-3)]Gal(b1-4)GlcNAc(b1-6)]GalNAc
# In short: as §1
# [12] = molecular target: Fuc(a1-2)[GalNAc(a1-3)]Gal(b1-4)GlcNAc(b1-6)GalNAc
# In short: as §1
# [13] = molecular target: Fuc(a1-2)[GalNAc(a1-3)]Gal(b1-4)[Fuc(a1-3)]GlcNAc
# In short: as §1
# [14] = molecular target: Fuc(a1-2)[GalNAc(a1-3)]Gal(b1-4)[Fuc(a1-3)]GlcNAc(b1-3)GalNAc
# In short: as §1
# [15] = molecular target: Fuc(a1-2)[GalNAc(a1-4)]Gal(b1-4)GlcNAc
# In short: as §1
# [16] = molecular target: Fuc(a1-2)[GalNAc(b1-3)]Gal
# In short: as §1
# [17] = molecular target: Fuc(a1-3)GlcNAc
# In short: as §1
# [18] = molecular target: Fuc(a1-3)[Gal(b1-4)]Glc6S
# In short: as §1
# [19] = molecular target: Fuc(a1-3)[Gal(b1-4)]GlcNAc
# In short: as §1
# [20] = molecular target: Fuc(a1-3)[Gal(b1-4)]GlcNAc(b1-2)Man
# In short: as §1
# [21] = molecular target: Fuc(a1-3)[Gal(b1-4)]GlcNAc(b1-2)Man(a1-3)[Fuc(a1-3)[Gal(b1-4)]GlcNAc(b1-2)Man(a1-6)]Man(b1-4)GlcNAc(b1-4)GlcNAc
# In short: as §1
# [22] = molecular target: Fuc(a1-3)[Gal(b1-4)]GlcNAc(b1-2)Man(a1-3)[Fuc(a1-3)[Gal(b1-4)]GlcNAc(b1-2)Man(a1-6)]Man(b1-4)GlcNAc(b1-4)[Fuc(a1-6)]GlcNAc
# In short: as §1
# [23] = molecular target: Fuc(a1-3)[Gal(b1-4)]GlcNAc(b1-3)Gal(b1-3)[Fuc(a1-4)]GlcNAc
# In short: as §1
# [24] = molecular target: Fuc(a1-3)[Gal(b1-4)]GlcNAc(b1-3)Gal(b1-4)[Fuc(a1-3)]GlcNAc
# In short: as §1
# [25] = molecular target: Fuc(a1-3)[Gal(b1-4)]GlcNAc(b1-3)Gal(b1-4)[Fuc(a1-3)]GlcNAc(b1-3)Gal(b1-4)[Fuc(a1-3)]GlcNAc
# In short: as §1
# [26] = molecular target: Fuc(a1-3)[Gal(b1-4)]GlcNAc(b1-3)GalNAc
# In short: as §1
# [27] = molecular target: Fuc(a1-3)[Gal(b1-4)]GlcNAc(b1-6)GalNAc
# In short: as §1
# [28] = molecular target: Fuc(a1-3)[Gal(b1-4)]GlcNAc(b1-6)[Gal(b1-3)GlcNAc(b1-3)]Gal(b1-4)Glc
# In short: as §1
# [29] = molecular target: Fuc(a1-3)[Gal(b1-4)]GlcNAc6S
# In short: as §1
# [30] = molecular target: Fuc(a1-3)[Gal3S(b1-4)]Glc
# In short: as §1
# [31] = molecular target: Fuc(a1-3)[Gal3S(b1-4)]GlcNAc
# In short: as §1
# [32] = molecular target: Fuc(a1-3)[Gal3S(b1-4)]GlcNAc6S
# In short: as §1
# [33] = molecular target: Fuc(a1-3)[GalNAc(b1-4)]GlcNAc
# In short: as §1
# [34] = molecular target: Fuc(a1-3)[GalNAc(b1-4)]GlcNAc6S
# In short: as §1
# [35] = molecular target: Fuc(a1-4)GlcNAc
# In short: as §1
# [36] = molecular target: Fuc(b1-3)GlcNAc
# In short: as §1
# [37] = molecular target: Gal(a1-2)Gal
# In short: as §1
binder,measurement,setting,value
"CFEM-PPl (Pichia pastoris), F2QPV1 (protein) AVATPPACLLACAAEVVKESSDCDALNNIQCICENEGSAIHACLESTCPDGLSSTALQSFEDVCESVGTEANLDE",glycan array binding signal (z-score),[1],0.166
same,glycan array binding signal (z-score),[2],-0.149
same,glycan array binding signal (z-score),[3],0.007
same,glycan array binding signal (z-score),[4],-0.284
same,glycan array binding signal (z-score),[5],-0.243
same,glycan array binding signal (z-score),[6],-0.126
same,glycan array binding signal (z-score),[7],-0.244
same,glycan array binding signal (z-score),[8],-0.348
same,glycan array binding signal (z-score),[9],-0.375
same,glycan array binding signal (z-score),[10],-0.294
same,glycan array binding signal (z-score),[11],-0.015
same,glycan array binding signal (z-score),[12],-0.249
same,glycan array binding signal (z-score),[13],0.057
same,glycan array binding signal (z-score),[14],2.17
same,glycan array binding signal (z-score),[15],-0.315
same,glycan array binding signal (z-score),[16],-0.218
same,glycan array binding signal (z-score),[17],-0.212
same,glycan array binding signal (z-score),[18],-0.098
same,glycan array binding signal (z-score),[19],-0.275
same,glycan array binding signal (z-score),[20],-0.19
same,glycan array binding signal (z-score),[21],-0.205
same,glycan array binding signal (z-score),[22],-0.04
same,glycan array binding signal (z-score),[23],-0.336
same,glycan array binding signal (z-score),[24],-0.128
same,glycan array binding signal (z-score),[25],-0.146
same,glycan array binding signal (z-score),[26],-0.069
same,glycan array binding signal (z-score),[27],0.273
same,glycan array binding signal (z-score),[28],-0.103
same,glycan array binding signal (z-score),[29],-0.161
same,glycan array binding signal (z-score),[30],-0.058
same,glycan array binding signal (z-score),[31],-0.101
same,glycan array binding signal (z-score),[32],0.169
same,glycan array binding signal (z-score),[33],-0.14
same,glycan array binding signal (z-score),[34],-0.254
same,glycan array binding signal (z-score),[35],-0.188
same,glycan array binding signal (z-score),[36],-0.299
same,glycan array binding signal (z-score),[37],-0.255
